Source: paper PMC4321167
No constants are given. Whether binding was seen depends on the method and setting. Some binding calls cover weakened binding; strength is not graded here. For some of these results: Sequences can lack the tags named with a protein.

Amino acid sequences for entries named in this document (tags omitted).
UniProt Q84JK2: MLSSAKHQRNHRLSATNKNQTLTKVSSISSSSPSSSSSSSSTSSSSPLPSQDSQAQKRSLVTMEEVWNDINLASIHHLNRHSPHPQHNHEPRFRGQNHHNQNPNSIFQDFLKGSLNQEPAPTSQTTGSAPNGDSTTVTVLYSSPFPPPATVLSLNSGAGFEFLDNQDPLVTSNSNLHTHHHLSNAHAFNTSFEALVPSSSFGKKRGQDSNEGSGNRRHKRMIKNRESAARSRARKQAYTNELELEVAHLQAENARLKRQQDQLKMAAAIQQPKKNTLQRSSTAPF
UniProt Q9C6P3: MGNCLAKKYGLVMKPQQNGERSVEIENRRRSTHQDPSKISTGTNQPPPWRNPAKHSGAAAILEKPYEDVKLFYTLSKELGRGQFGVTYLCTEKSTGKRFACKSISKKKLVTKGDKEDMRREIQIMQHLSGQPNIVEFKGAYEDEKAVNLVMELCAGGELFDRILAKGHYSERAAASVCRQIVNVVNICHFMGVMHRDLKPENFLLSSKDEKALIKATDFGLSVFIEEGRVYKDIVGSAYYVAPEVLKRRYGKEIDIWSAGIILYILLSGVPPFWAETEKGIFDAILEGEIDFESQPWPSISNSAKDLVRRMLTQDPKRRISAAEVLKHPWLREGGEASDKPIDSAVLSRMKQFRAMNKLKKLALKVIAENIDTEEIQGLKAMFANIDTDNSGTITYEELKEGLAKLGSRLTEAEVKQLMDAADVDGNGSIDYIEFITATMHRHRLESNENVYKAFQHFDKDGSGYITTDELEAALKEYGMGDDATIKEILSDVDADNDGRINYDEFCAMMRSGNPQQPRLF

Legend:
GST-FD (Arabidopsis) [1] = molecular target: GST-FD (Arabidopsis) (UniProt Q84JK2); assay: pull-down; GST-tagged bait on glutathione sepharose 4B resin, 5 μg purified Trx-His-CPK in 400 μl pull-down buffer (25 mM HEPES-KOH pH 7.5, 100 mM NaCl, 1 mM EGTA, 1 mM DTT, 0.1% NP-40), 2 h at 4°C; immunoblot with anti-His antibody; both purified
[2] = molecular target: T1, GST-FDP (FD PARALOG) (Arabidopsis) (UniProt Q7PCC6); assay: as above
T1 sequence: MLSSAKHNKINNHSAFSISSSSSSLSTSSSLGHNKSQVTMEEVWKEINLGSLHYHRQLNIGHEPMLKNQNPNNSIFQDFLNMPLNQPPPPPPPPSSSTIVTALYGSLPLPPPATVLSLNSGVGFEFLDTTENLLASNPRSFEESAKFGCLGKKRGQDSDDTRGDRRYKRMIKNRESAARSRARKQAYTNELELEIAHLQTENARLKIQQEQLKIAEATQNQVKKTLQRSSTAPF

GST-FD (Arabidopsis) [3] = molecular target: GST-FD (Arabidopsis) (UniProt Q84JK2); assay: pull-down; GST-tagged bait on glutathione sepharose 4B resin, 5 μg purified Trx-His-CPK in 400 μl pull-down buffer plus (25 mM HEPES-KOH pH 7.5, 100 mM NaCl, 1 mM CaCl2, 1 mM DTT, 0.1% NP-40), 2 h at 4°C; immunoblot with anti-His antibody; both purified
[4] = molecular target: T1, GST-FDP (FD PARALOG) (Arabidopsis); assay: as above

binding (GST-FD (Arabidopsis) [1]): binds | binding [2]: binds | binding (GST-FD (Arabidopsis) [3]): binds | binding [4]: binds
Substance: Trx-His-CPK33 (from UniProt Q9C6P3 1-521) (enzyme)
